Assay [1] addresses T1, Stt7 containing a haemagglutinin (HA)-tag at its C-terminal end (Stt7-HA) (Chlamydomonas reinhardtii) (UniProt Q84V18).
T1 sequence: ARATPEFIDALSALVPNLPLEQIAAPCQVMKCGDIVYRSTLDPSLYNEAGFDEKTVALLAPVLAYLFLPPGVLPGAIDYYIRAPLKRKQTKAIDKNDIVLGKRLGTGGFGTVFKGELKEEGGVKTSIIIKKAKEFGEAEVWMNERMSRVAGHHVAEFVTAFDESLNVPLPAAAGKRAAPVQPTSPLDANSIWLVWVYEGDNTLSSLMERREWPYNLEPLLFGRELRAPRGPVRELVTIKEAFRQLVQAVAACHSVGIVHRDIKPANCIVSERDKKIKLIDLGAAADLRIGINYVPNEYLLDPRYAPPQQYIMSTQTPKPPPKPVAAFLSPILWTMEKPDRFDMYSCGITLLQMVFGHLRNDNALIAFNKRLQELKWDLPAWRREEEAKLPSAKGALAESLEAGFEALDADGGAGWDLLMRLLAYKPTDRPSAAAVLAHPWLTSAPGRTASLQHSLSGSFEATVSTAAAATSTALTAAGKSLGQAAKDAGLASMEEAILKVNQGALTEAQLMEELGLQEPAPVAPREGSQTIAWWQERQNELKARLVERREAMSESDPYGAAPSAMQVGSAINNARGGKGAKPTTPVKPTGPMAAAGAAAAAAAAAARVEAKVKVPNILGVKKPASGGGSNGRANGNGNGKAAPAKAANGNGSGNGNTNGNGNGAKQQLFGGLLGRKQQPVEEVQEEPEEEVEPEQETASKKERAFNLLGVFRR
In words: co-IP; thylakoid membranes (0.8 mg/ml) solubilized with n-dodecyl-β-maltoside, anti-HA-affinity matrix overnight at 4 °C, five washes in TBS-BSA (100 mM Tris/HCl pH 7.5, 150 mM NaCl, 0.05% BSA), immunoblot of the precipitate; Figure 3A with cells in state 1 or state 2, Figure 6C state not told. In general terms: A western blot detects proteins with antibodies after separation by electrophoresis.

The chains behind the UniProt entries cited, without tags or fusion partners. Residues count along the entry.
UniProt P12154: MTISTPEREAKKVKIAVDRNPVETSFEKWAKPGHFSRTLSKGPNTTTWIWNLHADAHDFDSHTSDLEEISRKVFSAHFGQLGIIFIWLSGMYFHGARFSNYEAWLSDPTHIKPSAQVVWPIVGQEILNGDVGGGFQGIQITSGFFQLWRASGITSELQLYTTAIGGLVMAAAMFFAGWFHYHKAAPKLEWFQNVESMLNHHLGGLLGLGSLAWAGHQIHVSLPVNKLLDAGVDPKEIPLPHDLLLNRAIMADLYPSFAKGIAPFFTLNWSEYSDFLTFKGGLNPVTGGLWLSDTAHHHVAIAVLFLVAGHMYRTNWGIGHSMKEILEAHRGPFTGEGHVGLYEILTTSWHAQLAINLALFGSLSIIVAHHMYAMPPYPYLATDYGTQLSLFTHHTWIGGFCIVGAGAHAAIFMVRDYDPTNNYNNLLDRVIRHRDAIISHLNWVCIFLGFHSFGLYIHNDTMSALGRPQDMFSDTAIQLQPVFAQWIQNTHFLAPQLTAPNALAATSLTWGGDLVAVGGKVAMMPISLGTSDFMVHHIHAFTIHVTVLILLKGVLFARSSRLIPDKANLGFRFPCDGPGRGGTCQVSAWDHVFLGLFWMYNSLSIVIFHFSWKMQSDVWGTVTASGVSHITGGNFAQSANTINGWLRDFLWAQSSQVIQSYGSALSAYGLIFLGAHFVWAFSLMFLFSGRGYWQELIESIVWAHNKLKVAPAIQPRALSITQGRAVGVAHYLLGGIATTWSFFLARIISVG
UniProt Q93WD2: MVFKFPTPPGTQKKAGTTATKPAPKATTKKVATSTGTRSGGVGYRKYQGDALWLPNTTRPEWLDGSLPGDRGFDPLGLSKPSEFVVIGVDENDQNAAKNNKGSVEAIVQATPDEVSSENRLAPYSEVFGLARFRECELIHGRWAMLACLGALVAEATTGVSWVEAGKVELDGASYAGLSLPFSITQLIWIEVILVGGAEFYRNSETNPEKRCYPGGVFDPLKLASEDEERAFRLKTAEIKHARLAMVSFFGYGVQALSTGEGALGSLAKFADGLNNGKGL
UniProt P23577, residues 32-317: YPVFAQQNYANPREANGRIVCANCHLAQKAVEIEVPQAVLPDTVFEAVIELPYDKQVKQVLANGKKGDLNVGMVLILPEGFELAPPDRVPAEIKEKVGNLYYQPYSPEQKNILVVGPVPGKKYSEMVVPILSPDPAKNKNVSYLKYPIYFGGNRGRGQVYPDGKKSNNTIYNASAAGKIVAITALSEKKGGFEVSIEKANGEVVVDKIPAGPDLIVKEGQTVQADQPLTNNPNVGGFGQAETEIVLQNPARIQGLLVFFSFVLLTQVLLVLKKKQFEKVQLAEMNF
UniProt P26526: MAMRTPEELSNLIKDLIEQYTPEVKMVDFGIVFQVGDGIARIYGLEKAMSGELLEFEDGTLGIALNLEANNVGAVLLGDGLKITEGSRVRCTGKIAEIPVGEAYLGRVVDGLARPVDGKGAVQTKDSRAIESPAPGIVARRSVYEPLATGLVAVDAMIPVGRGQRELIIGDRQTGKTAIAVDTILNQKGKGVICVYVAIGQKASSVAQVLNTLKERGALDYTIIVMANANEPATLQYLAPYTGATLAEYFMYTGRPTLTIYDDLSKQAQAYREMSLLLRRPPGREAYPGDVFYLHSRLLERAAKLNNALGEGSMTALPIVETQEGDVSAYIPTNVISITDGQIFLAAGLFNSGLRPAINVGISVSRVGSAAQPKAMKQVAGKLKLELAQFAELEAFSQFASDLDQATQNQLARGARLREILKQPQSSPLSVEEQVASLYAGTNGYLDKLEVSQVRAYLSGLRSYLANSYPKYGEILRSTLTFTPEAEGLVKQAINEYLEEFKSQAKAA

Assay [2] concerns the target T1, Stt7 containing a haemagglutinin (HA)-tag at its C-terminal end (Stt7-HA) (Chlamydomonas reinhardtii). The assay is described as follows: co-IP; as a1, thylakoid membranes from Stt7-HA cells in state 1 only, precipitated with HA antiserum.
Assay [3] has as its target T2, Stt7-HA-C68S (Chlamydomonas reinhardtii) (UniProt Q84V18).
T2 sequence: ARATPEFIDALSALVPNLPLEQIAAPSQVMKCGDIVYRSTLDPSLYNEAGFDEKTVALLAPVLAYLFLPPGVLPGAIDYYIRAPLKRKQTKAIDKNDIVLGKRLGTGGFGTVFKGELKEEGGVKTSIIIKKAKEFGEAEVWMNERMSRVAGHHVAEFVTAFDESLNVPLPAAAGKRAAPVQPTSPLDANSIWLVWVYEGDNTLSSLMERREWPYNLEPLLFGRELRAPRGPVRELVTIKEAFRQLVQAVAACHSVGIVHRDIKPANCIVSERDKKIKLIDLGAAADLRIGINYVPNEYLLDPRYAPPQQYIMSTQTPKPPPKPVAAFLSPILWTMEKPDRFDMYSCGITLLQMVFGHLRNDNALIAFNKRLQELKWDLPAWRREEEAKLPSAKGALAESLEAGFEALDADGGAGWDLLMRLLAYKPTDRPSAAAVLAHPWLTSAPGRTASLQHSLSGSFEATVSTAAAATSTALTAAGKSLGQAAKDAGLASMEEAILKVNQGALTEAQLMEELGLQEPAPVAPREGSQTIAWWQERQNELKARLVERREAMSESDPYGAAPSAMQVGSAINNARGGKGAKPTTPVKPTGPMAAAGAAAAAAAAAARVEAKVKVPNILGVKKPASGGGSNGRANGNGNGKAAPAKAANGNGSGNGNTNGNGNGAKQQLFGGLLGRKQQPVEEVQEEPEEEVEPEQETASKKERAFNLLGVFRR
In words: co-IP; thylakoid membranes (0.8 mg/ml) solubilized with n-dodecyl-β-maltoside, anti-HA-affinity matrix overnight at 4 °C, five washes in TBS-BSA (100 mM Tris/HCl pH 7.5, 150 mM NaCl, 0.05% BSA), immunoblot of the precipitate; Figure 3A with cells in state 1 or state 2, Figure 6C state not told.

Substrate in assay [4]: PSI subunit PsaA (Chlamydomonas reinhardtii (endogenous)) (UniProt P12154)
In words: co-IP; reciprocal: solubilized thylakoid membranes from the Stt7-HA strain precipitated with antibodies against the thylakoid proteins, immunoblotted with HA antibodies.

Results are given in words; binding and its absence hold for the method and conditions named. Binding seen in cells or lysates may run through a third protein. Some results given as binding are weak or reduced against the parent protein; the word gives no strength. Tags and fused reporters may be left off the sequences shown.

Regarding CP29 (from UniProt Q93WD2 1-280), the binding entry in assay [1] is “binds”; in assay [2], “no binding (condition: cells in state 1)”.
Consider “PSI subunit PsaA (from UniProt P12154 1-751)”, for which the binding entry in assay [1] is reported as “binds”.
As to “cytochrome f (from UniProt P23577 32-317)”, the binding result in assay [3] is reported as “binds”.
For the molecule “subunit α of ATP synthase (from UniProt P26526 1-508)”, in assay [1], the binding result is “no binding”.

B1: Rieske protein (protein, UniProt P49728 30-206)
chain: AAASSEVPDMNKRNIMNLILAGGAGLPITTLALGYGAFFVPPSSGGGGGGQAAKDALGNDIKAGEWLKTHLAGDRSLSQGLKGDPTYLIVTADSTIEKYGLNAVCTHLGCVVPWVAAENKFKCPCHGSQYNAEGKVVRGPAPLSLALAHCDVAESGLVTFSTWTETDFRTGLEPWWA
Consider B1, for which the binding result in assay [3] is recorded as “binds”.

B2: Stt7 containing a haemagglutinin (HA)-tag at its C-terminal end (Stt7-HA) (enzyme, UniProt Q84V18 42-754)
chain: ARATPEFIDALSALVPNLPLEQIAAPCQVMKCGDIVYRSTLDPSLYNEAGFDEKTVALLAPVLAYLFLPPGVLPGAIDYYIRAPLKRKQTKAIDKNDIVLGKRLGTGGFGTVFKGELKEEGGVKTSIIIKKAKEFGEAEVWMNERMSRVAGHHVAEFVTAFDESLNVPLPAAAGKRAAPVQPTSPLDANSIWLVWVYEGDNTLSSLMERREWPYNLEPLLFGRELRAPRGPVRELVTIKEAFRQLVQAVAACHSVGIVHRDIKPANCIVSERDKKIKLIDLGAAADLRIGINYVPNEYLLDPRYAPPQQYIMSTQTPKPPPKPVAAFLSPILWTMEKPDRFDMYSCGITLLQMVFGHLRNDNALIAFNKRLQELKWDLPAWRREEEAKLPSAKGALAESLEAGFEALDADGGAGWDLLMRLLAYKPTDRPSAAAVLAHPWLTSAPGRTASLQHSLSGSFEATVSTAAAATSTALTAAGKSLGQAAKDAGLASMEEAILKVNQGALTEAQLMEELGLQEPAPVAPREGSQTIAWWQERQNELKARLVERREAMSESDPYGAAPSAMQVGSAINNARGGKGAKPTTPVKPTGPMAAAGAAAAAAAAAARVEAKVKVPNILGVKKPASGGGSNGRANGNGNGKAAPAKAANGNGSGNGNTNGNGNGAKQQLFGGLLGRKQQPVEEVQEEPEEEVEPEQETASKKERAFNLLGVFRR
As to B2, the binding entry in assay [4] is “binds”.

These data come from publication PMC2650728.
